# PubChem BioAssay (NCI)
# Some structures have more than one record in an assay (separate samples or runs), and their calls can disagree.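 For each line, cells grew in 96-well plates with the test compound present at a single concentration for 48 hours.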 Not every entry of the source has a single result; some have several. The list is limited to them. Rule for the calls: active = growth percent below 10; inactive = the rest. The source may hold further records. The screen tested this drug many times, at its own concentration, as given; each value is one run. Additions like (4×) count equal records among those shown.
# Legend:
# [1] = tested on: MDA-MB-231 breast; assay: NCI-60 one-dose screen, 48 h (100 = growth as untreated, 0 = no growth, -100 = all killed); conditions: 25 µM
# [2] = tested on: PC-3 prostate; assay: as above; conditions: 0.25 µM
smiles,measurement,setting,value
COc1cccc2c1C(=O)c1c(O)c3c(c(O)c1C2=O)C[C@@](O)(C(=O)CO)C[C@@H]3OC1CC(N)C(O)C(C)O1 (stereo not given in full),growth,[1]; runs of 1996,"active: -57.2, -32.7, -63.7, -61.2, -42.1, -46.3, -47.3, -37.9, -26.8, -39.3, -47.9, -50.6, -63.9, -10.4, -54.9, -56.4, -51, -39.2, -67.2, -36.4, -32.1 (2×), -46.6, -40.7, -58.7, -19.1, -44.1, 1.37, -45.5, -64.5, -59.8, -59.9, -54.5, -66.5, -51.9, -46.8, -70.1, -55.5, -56.3, -66, -40.9, -100, -61.6, -51.2, -55.9, -49.4, -59.3, -66.2, -53, -23.1, -95.2, -62.8, -33.3, -20.1, -28.4, -53.1% and inactive: 88.3%, 23.8%, 19.4%"
same,growth,[1]; runs of 1997,"active: -63.5, -39.1, -52.6, -50.8, -59.4, -9.88, -55.3, -37.5, -22.1, -58, -44.6 (2×), -25.4, -53.3, -65.7, -54.3, -45.3, -77.1, -52.9, -23.9, -55.6, -50.2 (2×), -49.5, -66.2, -51.1 (2×), -38, -48.9, -11.5, -24.5 (2×), -39.2, -33.7, -73.1, -31.2, -64.8, -60.2, -47.3, -9.36, -50.9, -21.4, -31.6%"
same,growth,[1]; runs of 1998,"active: -64.4, -25.8, -26.4, -83.9, -39.9, -60.1, -27.3, -12.8, -50.9, -38.6, -31.9, -41.8, 0.113, -52.4, -29.3, -56.1, -62.4, -53.5, -7.03, -54.9, -57.2, 1.91, -38, -47.5, -56.6, -23.2%"
same,growth,[1]; runs of 1999,"active: -64.2, -11.7, -51.8, -67.7, -58.3, -100 (3×), -62.5, 0.0452, 2.07, -64.6, -23.3, 1.36%"
same,growth,[1]; runs of 2000,"active: -100% (2×), -70.5%, -96.9%"
same,growth,[2]; runs of 2006,"inactive: 48%, 51.6%"
same,growth,[2]; runs of 2007,"inactive: 43.9, 61.6, 56.6, 63.6, 65.2, 63.5, 60.2, 69.5, 49.3, 64.7, 60.7, 58.9, 59.3, 66.2, 49.9, 60.9, 65.5, 69.1, 69.6, 67.7, 61.5, 64.5, 72.5, 54.1, 73, 64.9, 69.9, 10.3, 55.4, 77.3, 65.4, 71.3, 40.2, 61.2, 68.5, 54.6, 72.2, 49.5, 37.7, 72.6%"
same,growth,[2]; runs of 2008,"inactive: 66.7, 71.2 (2×), 59.4 (2×), 64.6 (2×), 70.9, 69 (2×), 60.7, 69.8, 67.7, 72.5, 70.1, 49.7, 51.7, 59.3, 29.1, 41.9, 50.3, 50.8 (2×), 31.9, 60.2, 59.2, 90.7, 44.2, 73.8, 67.5, 74.1, 74.6, 74.3, 62.7, 57.8, 63.8, 49.9, 64.4, 58.5, 60.1, 65.4%"
same,growth,[2]; runs of 2009,"inactive: 67.8, 61.1, 66.6, 71.1, 76.3, 56.5, 69.1, 67.5 (2×), 64.4, 55.3, 61.5, 78.4, 65 (2×), 69.9, 68.2 (2×), 66.2, 65.7, 68.6, 68.4, 48.1, 55.8, 43.7, 55.5 (2×), 69.7 (2×), 61, 70.7, 63, 67.9, 53.7, 53, 57, 61.3, 57.2, 62, 52.7, 56.7, 57.1, 58.2, 59.8, 53.9, 70.4, 73.2, 63.9, 47.2, 59.7, 52.8, 59.3, 70.9, 81.2, 71.9, 74, 60.8, 69.5, 65.3, 63.7, 60.3, 62.5%"
same,growth,[2]; runs of 2010,"inactive: 67.6 (2×), 59.4, 70.1, 61.9 (3×), 73, 66.6, 68.9, 66.2 (3×), 58.5, 59.6, 66 (2×), 61.5, 58.8, 62.5, 62.7, 75.1, 49.1, 64.4 (2×), 50.2, 64.5, 62.4, 54.9, 60.4, 67.2, 67.8, 54.1, 69.9, 66.3, 65.9, 57.8, 61.7, 64.8, 69.6 (2×), 65.3 (2×), 70.7 (2×), 67.5, 64.7, 63.5, 68.2, 56.2, 61.6, 63.8%"
same,growth,[2]; runs of 2011,"inactive: 57.4 (2×), 59.2, 64.4, 64.6, 63.4 (2×), 67.3 (2×), 72.3, 63.7, 47, 61.7, 65.4 (2×), 62.6, 62.3 (2×), 68.2, 64.2, 61.1, 70.3 (2×), 70.5, 75.2, 72.2, 78.8, 77.9, 72.7, 71.5, 79.1, 69.4, 72.9, 60.4 (2×), 61.6, 63.5, 59.7, 57, 62.5, 55.5, 49.7, 66.3, 72.6, 71.6, 68.9, 70, 56.6, 74.9, 65, 68.5, 67.9, 73.5%"
same,growth,[2]; runs of 2012,"inactive: 69.4, 56.5, 63.8, 57 (2×), 65.5, 64.7, 60.2, 56, 57.3 (3×), 61, 61.8 (2×), 58.3 (2×), 55.1, 59.2 (2×), 66.3, 59.4, 59.5 (2×), 61.6, 57.5, 61.3, 63.5, 60.1 (2×), 68.2, 64.8, 62 (2×), 64.6, 60.4 (2×), 61.2 (2×), 55.6 (2×), 36.5, 53.7, 60.6, 57.6, 45.1, 46.8, 73.9, 73.4, 67.7, 72.1, 70.2, 72, 70.6, 71, 54.9, 49.9, 56.8 (2×), 50.7, 49.7, 56.6, 63, 59.3, 51.7%"
same,growth,[2]; runs of 2013,"inactive: 61.7, 64.2, 60.9, 62.1, 51.2 (2×), 65.9, 63.8 (2×), 69.8, 65.3, 70.1, 72.7 (2×), 69.5 (2×), 67.5, 64.9 (2×), 69.1 (2×), 72.2, 75.9, 71.3 (2×), 67.9 (2×), 56.9, 72.3, 67.2, 69.2 (3×), 65.2 (2×), 68.6, 65.4 (2×), 68.2, 81.1, 72.1, 60.2, 71, 62.4 (2×), 63.6, 62.3, 59.5, 67.8, 69.6, 50.9, 44.9, 61 (2×), 62, 60.8, 52.2, 51.7, 52, 52.5, 48.6, 57.1, 53.6, 58.7, 63.1, 54.7, 60.7%"
same,growth,[2]; runs of 2014,"inactive: 60, 65.1 (3×), 47.9, 46.7, 59.4, 45.1, 69.9, 61.3, 56.5, 50.4, 59.3, 38.6, 71.1, 70.5, 59.5, 71.2, 54.1, 53, 65.2 (2×), 61.7 (2×), 69.1, 64.5 (2×), 68.6, 65 (2×), 64.6, 65.5 (3×), 62.4, 58.1, 58.9, 60.3, 57.9, 69.2, 64.9 (2×), 61.8, 64.4 (3×), 73.3, 71.6 (2×), 70.7, 66.7, 66.3, 59.2 (2×), 62.7, 69.6, 64.7, 64, 65.4 (2×), 61, 63.3, 65.9, 62.5, 60.2, 68.5, 60.4, 70, 70.3, 67.7, 67.2, 63.1, 66.6, 69.4%"
same,growth,[2]; runs of 2015,"inactive: 71.6, 61.5, 56.1, 67.6, 60, 61.3, 63.7 (2×), 65.9, 62.7, 58.8, 57.4, 61.2, 61.9, 68.5, 59.8, 49.9 (2×), 48.9, 55.8 (2×), 53.9, 53.8 (2×), 57.7, 66.4, 55.1 (2×), 57.1, 55.6, 51, 48.7, 52.6, 59.7, 54.6, 53.5 (2×), 57, 54.4, 63.9, 57.2, 63.3, 51.5, 69.2, 61, 60.7, 64.6 (2×), 52, 53, 50.3, 52.4, 50, 53.3 (2×), 44.4, 47.9, 48.6, 50.1, 58.3, 50.2, 54.8, 63.5 (2×), 58.1, 65.3, 67.7, 58.5, 65, 68.9, 70.3, 66 (3×), 69.1, 70.9, 63.6, 69.4, 70.7%"
